In PubChem BioAssay AID493208 (National Center for Advancing Translational Sciences (NCATS), 2011):
Hit rate of the full screen: of about 44,000 compounds, about 340 (0.77%) were called active. Inconclusive results (about 5%) are left out. Calls come from the whole dose curve; as a rule, active = well fitted inhibition curve with a large enough effect; inconclusive = small, poorly fitted or top-dose-only effect; inactive = flat fitted curve, though single readings scatter. The list shows a part of the results.

assay: Acumen qHTS Assay for Inhibitors of the mTORC1 Signaling Pathway in MEF (Tsc2-/-, p53-/-) Cells: Sytravon; details: phospho-rpS6 immunofluorescence/PI, 24 h; series mostly up to 38.3 µM; activity change, negative = inhibition: at the top concentration;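 note: plate controls were DMSO for no effect and rapamycin for full effect; nearly all actives have a fitted effect of over 50% in size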
Procedure, shortened: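 Compounds act on Tsc2-/-, p53-/- fibroblasts carrying an empty vector for 24 h before fixation and dual staining for phospho-S6 and DNA (propidium iodide). Values are percentages of cells above a rapamycin-defined pS6/PI threshold.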

Activity change, negative = inhibition, inactive:
CCC(Sc1nc2ccccc2c2nc(CCn3cncc3C)nn12)C(=O)Nc1cccc(OC)c1 (stereo not drawn) -23.3%
CCC1CCCCN1CCCNC(=O)CN1C(=O)c2cccnc2Oc2ccc(Cl)cc21 (stereo not drawn) 0.721%
COc1ccc(Cn2c(CNC(=O)c3ccc(N(C)C)cc3)nc3cccnc32)cc1 0.995%
Cc1cc(C)c2nc(N3CCCC(C(=O)NCc4cccc(Br)c4)C3)sc2c1 (stereo not drawn) -0.289%
Fc1ccc(Nc2nc3ccccc3c3nncn23)c(Cl)c1 0.167%
Cc1ccc2oc(=O)c3cc(C(=O)Nc4ccc(F)cc4F)sc3c2c1 -11.7%
COc1ccc(CCNC(=O)c2ccc(Cn3c(=O)c4ccccc4n(Cc4cc(C)ccc4C)c3=O)cc2)cc1OC -17%
Cc1ccc(NC(=O)c2oc3ccc(S(=O)(=O)N4CCCCCC4)cc3c2C)cc1Cl -1.25%
CCOC(=O)c1ccc(N2CCN(c3ccccc3F)CC2)c(NC(=O)Nc2ccc(Cl)c(Cl)c2)c1 3.39%
CC(C)CSc1nnc(-c2ccccc2)c(-c2ccccc2)n1 -7.68%
CCCN1C(=O)c2[nH]nc(-c3ccccc3O)c2C1c1ccc(OCc2ccccc2)c(OCC)c1 (stereo not drawn) 3.76%
Cc1ccc(Cl)cc1NC(=O)CN1C(=O)c2cccc3cccc1c23 -5.36%
COc1ccc(C)c2sc(N(Cc3cccnc3)C(C)=O)nc12 -1.48%
COc1ccc(-c2nc3ccccc3s2)cc1NC(=O)COc1ccccc1C -2.25%
COc1ccccc1OCCn1c(NC(=O)c2ccc(Cl)cc2)nc2ccccc21 0.357%
Cc1ccc(N(CC(=O)N2CCN(c3ccccc3F)CC2)S(=O)(=O)c2c(C)noc2C)cc1 -6.77%
Cc1ccc(CCNC(=O)C(NS(=O)(=O)c2ccc3c(c2)oc(=O)n3C)C(C)C)cc1 (stereo not drawn) -2.67%
CCOC(=O)CSc1ccc2nnc(CCNS(=O)(=O)c3ccccc3)n2n1 3.15%
COc1cc2c(cc1OC)C(c1ccc(F)cc1)N(c1cccc(C#N)c1)C(=O)C2 (stereo not drawn) 1.77%
O=C(Nc1cccc(C(=O)OCc2cc(=O)n3nc(C4CC4)sc3n2)c1)c1cccc(F)c1 0%
CCOc1ccc(-n2c(SCC(=O)NCC3CCCO3)nc3c([nH]c4ccccc43)c2=O)cc1 (stereo not drawn) 0.209%
COc1ccc(Cn2ccn(Cc3cccc(C)c3)c(=O)c2=O)cc1 4.95%
COc1cc2c(cc1OC)C(COc1ccc3c(C)cc(=O)oc3c1)N(C(=O)c1cccc(C)c1)CC2 (stereo not drawn) 1.26%
Cn1c(=O)c(=O)n(C)c2cc(S(=O)(=O)N3CCCC3C(=O)Nc3ccccc3F)ccc21 (stereo not drawn) -1.79%
O=C(NCCc1ccccc1)c1ccc2c(c1)N(Cc1c(F)cccc1Cl)C(=O)CS2 -16.4%
Cc1ccc(N(CC(=O)Nc2cccc(F)c2)S(=O)(=O)c2cccs2)cc1 -5.2%
CNC(=O)C1CCC(Cn2c(=O)c3sccc3n(Cc3ccc(F)cc3)c2=O)CC1 (stereo not drawn) -0.726%
CCc1ccc(NC(=O)CSc2nccn2-c2ccc(OC)cc2)cc1 -17.8%
CC1(C(=O)Nc2cccc(Br)c2)Cc2ccccc2C(=O)O1 (stereo not drawn) -12.1%
CC(=O)N1CCCc2cc(S(=O)(=O)N3CCC(C(=O)NC4CCC(C)CC4)CC3)ccc21 (stereo not drawn) -1.84%
COCCCNC(=O)CCC(=O)N1Cc2cccc(OC)c2Oc2ncccc21 -2.21%
CCn1c(C(=O)NCc2ccccc2C)cc2oc3ccccc3c21 -1.87%
COC(=O)c1ccccc1NC(=O)c1ncoc1-c1ccco1 25.8%
CCCc1cc(=O)oc2c3c(ccc12)OCN(Cc1ccc(OC)cc1)C3 -7.35%
Cc1ccccc1OCCSc1nc2ccc(NC(=O)c3ccccc3)cc2s1 -2.3%
COC(=O)Cn1nc(C)c2c(C)n(-c3ccccc3)nc2c1=O -2.13%
COc1cccc2c1cc1c(=O)n(CC(=O)NC3CCCCC3)nc(C)n12 2.42%
Cc1ccc(C(=O)Nc2cccc(OCc3cc(=O)n4c5c(sc4n3)CCCC5)c2)cc1 -2.91%
COc1cc(C(=O)N2CCN(c3ccc(Nc4ccc(C)cc4)nn3)CC2)cc(OC)c1OC -7.58%
NC(=O)CSc1oc(-c2ccco2)nc1S(=O)(=O)c1ccc(Cl)cc1 3.04%
Cc1ccc(NC(=O)c2cc3cc(C)ccc3n2C)cc1 -1.67%
CCOC(=O)c1ccc(NC(=O)Cn2c(=O)cc(C)c3c(C)nn(-c4cccc(F)c4)c32)cc1 6.21%
CCCc1cnc2c(c1SCC(=O)N1CCC(C)CC1)c(=O)n(C)c(=O)n2C 0.132%
O=C(NCCc1ccccc1)c1sc2ncccc2c1-n1cccc1 -1.76%
CCC1CCCCN1C(=O)Cn1c(=O)oc2cc(S(=O)(=O)N3CCCCC3)ccc21 (stereo not drawn) 0.659%
Cc1nn(Cc2ccccc2Cl)c(C)c1NC(=O)c1cc(C(C)C)on1 11.1%
Cc1ccc(NC(=O)C(Cc2ccccc2)NS(=O)(=O)c2ccc3c(c2)oc(=O)n3C)cc1F (stereo not drawn) 1.43%
O=C(Nc1nc2n(n1)C(c1ccc(F)cc1)C=C(c1ccccc1)N2)c1ccc(Cl)cc1 (stereo not drawn) 1.24%
